Results taken from patent publication US6262067A, “Polymorphs of a crystalline azo-bicyclo 2,2,2 OCT-3-yl amine dihydrochloride and their pharmaceutical compositions” (priority 2000, dated 2001).
Some values that stand alone complete this part of the results.

Test: Thermal water loss and degradation (TGA/DTA, DSC, fusion microscopy)
Format: physicochemical

DSC hydrates off temperature (first hydrate-off event): ~ 130 °C
DSC hydrates off temperature (second hydrate-off event): ~ 155 °C
Compound: COc1ccc(C(C)C)cc1CN[C@H]1C2CCN(CC2)[C@H]1C(c1ccccc1)c1ccccc1 [Form II, (2-Benzhydryl-1-azo-bicyclo 2,2,2oct-3-yl)-(5-isoproyl-2-methoxybenzyl)-amine]
